To fix the notation:
B1: PhoQ; a variant is named by its letters at X, in order, P23837 (parent)
chain: MKKLLRLFFPLSLRVRFLLATAAVVLVLSLAYGMVALIGYSVSFDKTTFRLLRGESNLFYTLAKWENNKLHVELPENIDKQSPTMTLIYDENGQLLWAQRDVPWLMKMIQPDWLKSNGFHEIEADVNDTSLLLSGDHSIQQQLQEVREDDDDAEMTHSVAVNVYPATSRMPKLTIVVVDTIPVELKSSYMVWSWFIYVLSANLLLVIPLLWVAAWWSLRPIEALAKEVRELEEHNRELLNPATTRELTSLVRNLNRLLKSERERYDKYRTTLTDLTHSLKTPLXXLQXXLRSLRSEKMSVSDAEPVMLEQISRISQQIGYYLHRASMRGGTLLSRELHPVAPLLDNLTSALNKVYQRKGVNISLDISPEISFVGEQNDFVEVMGNVLDNACKYCLEFVEISARQTDEHLYIVVEDDGPGIPLSKREVIFDRGQRVDTLRPGQGVGLAVAREITEQYEGKIVAGESMLGGARMEVIFGRQHSAPKDE

These results are taken from a collection of fitness landscapes (doi:10.1126/science.1257360).

Some of the results follow.

The test covers variants of B1. Nature of the test: enrichment ratio after two sorts for PhoP signalling (ratio (wild type AVST 3.29)); higher = more functional. The settings on record: with PhoP (E. coli).
For the variant FMNH, the enrichment ratio was ≤ 0.25. On to GIYE, for which the enrichment ratio is ≤ 0.25. With TCNH, the enrichment ratio amounted to 10.3. AHVV: the enrichment ratio is ≤ 0.25. In the case of PIMF, the enrichment ratio was ≤ 0.25. As for EYWD, the enrichment ratio is ≤ 0.25.

For ACDW, the enrichment ratio was ≤ 0.25. On to RIDG, for which the enrichment ratio was ≤ 0.25. Consider LVEA, for which the enrichment ratio was ≤ 0.25. Consider YQNR, for which the enrichment ratio is ≤ 0.25. The value for YKYA was ≤ 0.25.

Consider HALN, for which the enrichment ratio came out at 0.451.

Regarding DNDN, the enrichment ratio was ≤ 0.25.

For the variant RCLP, the enrichment ratio was ≤ 0.25. In the case of VKTE, the enrichment ratio is ≤ 0.25. For DVCM, the enrichment ratio was ≤ 0.25. Take HLCP: the enrichment ratio is ≤ 0.25.

On to VHQG, for which the enrichment ratio was ≤ 0.25. On to NYFN, for which the enrichment ratio was ≤ 0.25.

In the case of RYFR, the enrichment ratio was ≤ 0.25.

As for VGCI, the enrichment ratio worked out at 4.54. As for LDTC, the enrichment ratio was ≤ 0.25. MYHD: the enrichment ratio was ≤ 0.25. For the variant HRKL, the enrichment ratio is ≤ 0.25. Take MQAK: the enrichment ratio is ≤ 0.25. For NASY, the enrichment ratio is ≤ 0.25.

For LKFT, the enrichment ratio is ≤ 0.25. For the variant AIFQ, the enrichment ratio was ≤ 0.25. On to RPPL, for which the enrichment ratio was ≤ 0.25.

As to QMGP, the enrichment ratio was ≤ 0.25. Regarding LNMD, the enrichment ratio was ≤ 0.25. GNLL: the enrichment ratio was 15.3.

For WRQL, the enrichment ratio was ≤ 0.25. For IFWT, the enrichment ratio is ≤ 0.25. Turning to IMTC, the enrichment ratio is ≤ 0.25. With HVSD, the enrichment ratio is ≤ 0.25.

For the variant TPGP, the enrichment ratio was ≤ 0.25. Take HHCT: the enrichment ratio was ≤ 0.25.

In the case of SAGP, the enrichment ratio was ≤ 0.25.

Consider VWED, for which the enrichment ratio is ≤ 0.25. Regarding KLKM, the enrichment ratio was ≤ 0.25. The value for VYRS was 0.255. Regarding RIRW, the enrichment ratio was ≤ 0.25. Turning to YFVT, the enrichment ratio was ≤ 0.25.

As to GYAR, the enrichment ratio was ≤ 0.25. For the variant FQKH, the enrichment ratio was ≤ 0.25. Take AAMI: the enrichment ratio was determined as 3.3. Consider KRTC, for which the enrichment ratio was ≤ 0.25.

For KFKI, the enrichment ratio is ≤ 0.25.

As for WECT, the enrichment ratio was ≤ 0.25. In the case of NMRE, the enrichment ratio is ≤ 0.25. As to GWWP, the enrichment ratio is ≤ 0.25. For MLNN, the enrichment ratio is ≤ 0.25. KLGK: the enrichment ratio was ≤ 0.25.

Regarding MLCY, the enrichment ratio is ≤ 0.25.

Consider IPLN, for which the enrichment ratio was ≤ 0.25.

Take AVLM: the enrichment ratio was determined as 9.14.

Consider GFKL, for which the enrichment ratio is ≤ 0.25.

Turning to FIEV, the enrichment ratio is ≤ 0.25. For VRAH, the enrichment ratio was ≤ 0.25. Consider AMFC, for which the enrichment ratio is ≤ 0.25. Take LYEA: the enrichment ratio was ≤ 0.25.

With FDEI, the enrichment ratio is ≤ 0.25.

Turning to YLSW, the enrichment ratio was ≤ 0.25. The value for RLFF was ≤ 0.25; that for IEQF was ≤ 0.25. As for TSRY, the enrichment ratio is ≤ 0.25.

For TPDC, the enrichment ratio was ≤ 0.25. In the case of ENSF, the enrichment ratio is ≤ 0.25. DRSQ: the enrichment ratio is ≤ 0.25. As for FSDL, the enrichment ratio is ≤ 0.25. Regarding PHNK, the enrichment ratio is ≤ 0.25.

On to YNWL, for which the enrichment ratio was ≤ 0.25. Consider PSHP, for which the enrichment ratio is ≤ 0.25. As for RCTV, the enrichment ratio was ≤ 0.25. Turning to PRPD, the enrichment ratio is ≤ 0.25.

As to FNTL, the enrichment ratio is ≤ 0.25. As to FLPP, the enrichment ratio is ≤ 0.25. With KERN, the enrichment ratio was ≤ 0.25. With YFPH, the enrichment ratio is ≤ 0.25. As to HWHC, the enrichment ratio was ≤ 0.25. For the variant HCGK, the enrichment ratio was ≤ 0.25. As to RPRV, the enrichment ratio is ≤ 0.25. Regarding PWVR, the enrichment ratio was ≤ 0.25. As to LSEG, the enrichment ratio is ≤ 0.25. The value for SYRK was ≤ 0.25; that for VALS was 5.15; that for STNF was 12.6. On to ICPA, for which the enrichment ratio is ≤ 0.25. The value for DSFS was ≤ 0.25. For YSTS the value was ≤ 0.25; for RCTE, ≤ 0.25.

As to HLAL, the enrichment ratio worked out at 1.23. On to VVPW, for which the enrichment ratio was ≤ 0.25. Take SCYE: the enrichment ratio came to 0.33. As to IYYC, the enrichment ratio is ≤ 0.25. SYFC: the enrichment ratio is ≤ 0.25.

In the case of ACFQ, the enrichment ratio was ≤ 0.25.

On to MGWV, for which the enrichment ratio is 6.77. In the case of YSKK, the enrichment ratio was ≤ 0.25. As for FLRI, the enrichment ratio is ≤ 0.25. With FQKD, the enrichment ratio was ≤ 0.25. As to MCLG, the enrichment ratio came out at 6.87. Consider LPAN, for which the enrichment ratio is ≤ 0.25. For SIMT the value was 7.68. As to HIVN, the enrichment ratio is ≤ 0.25. For YPRM the value was ≤ 0.25; for TNRY, ≤ 0.25; for EDYS, ≤ 0.25.

Turning to ERTH, the enrichment ratio is ≤ 0.25. For QGDI, the enrichment ratio is ≤ 0.25. Consider IAAM, for which the enrichment ratio is ≤ 0.25. As for PMDI, the enrichment ratio was ≤ 0.25. As for RIGV, the enrichment ratio is ≤ 0.25.

Regarding SWFI, the enrichment ratio is ≤ 0.25.

With YRFE, the enrichment ratio is ≤ 0.25. For MLQH, the enrichment ratio is ≤ 0.25.

On to NFFL, for which the enrichment ratio is ≤ 0.25. For the variant HPQW, the enrichment ratio was ≤ 0.25. Turning to PERH, the enrichment ratio was ≤ 0.25.

For the variant DLYN, the enrichment ratio was ≤ 0.25.

Turning to EKIP, the enrichment ratio is ≤ 0.25.

For the variant FEQK, the enrichment ratio is ≤ 0.25. With HAGS, the enrichment ratio was ≤ 0.25. For the variant AETW, the enrichment ratio is 11.3. For the variant FCAY, the enrichment ratio is ≤ 0.25. Turning to AQHA, the enrichment ratio is ≤ 0.25. As to VLVM, the enrichment ratio is ≤ 0.25.

With YNGP, the enrichment ratio is ≤ 0.25. For VSDN, the enrichment ratio was ≤ 0.25. Consider VADC, for which the enrichment ratio was ≤ 0.25. For the variant ESSG, the enrichment ratio was ≤ 0.25. Take SYVA: the enrichment ratio was ≤ 0.25. Consider DNNN, for which the enrichment ratio was ≤ 0.25. Turning to SSHT, the enrichment ratio is ≤ 0.25. For LHEE, the enrichment ratio was ≤ 0.25.

YNEY: the enrichment ratio is ≤ 0.25.

For the variant RVVW, the enrichment ratio was ≤ 0.25. For PAVQ the value was ≤ 0.25. The value for YNRP was ≤ 0.25; that for FDSK was ≤ 0.25. For the variant YADI, the enrichment ratio was ≤ 0.25. With EMFI, the enrichment ratio is ≤ 0.25. As for YHMK, the enrichment ratio is ≤ 0.25. As for TGYG, the enrichment ratio was 9.68.

Take QDFK: the enrichment ratio was ≤ 0.25. Regarding YEIC, the enrichment ratio was found to be 1.24. Regarding PKCA, the enrichment ratio is ≤ 0.25. Turning to QVLH, the enrichment ratio was ≤ 0.25.

Turning to EYIS, the enrichment ratio is ≤ 0.25. The value for IFME was ≤ 0.25; that for IQFM was ≤ 0.25. For GCYQ the value was ≤ 0.25.
